Data published in PubChem BioAssay AID504832 (National Center for Advancing Translational Sciences (NCATS), 2011).
In all, about 310,000 compounds went through this assay and about 18,000 (5.8%) were called active. The shares of active, inactive and inconclusive entries below differ from those in the screen. Calls come from the whole dose curve; as a rule, active = well fitted inhibition curve with a large enough effect; inconclusive = small, poorly fitted or top-dose-only effect, or another doubt; inactive = no such curve, though single readings can be large or run the other way. Potencies of inconclusive entries are left out as doubtful fits.

Test: Primary qHTS for delayed death inhibitors of the malarial parasite plastid, 48 hour incubation
Settings: P. falciparum luciferase growth in erythrocytes; series mostly up to 28.7 µM; activity change, negative = inhibition: at the top concentration
Procedure, shortened: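 Parasite viability was followed by luminescence of a genomically integrated firefly luciferase. Cultures held 0.1% parasitemia at 2% hematocrit (final), incubated under 5% CO2 at 37 C.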
% is set by controls: 0 for no effect and ±100 for the full control effect; potency is the fitted concentration of half-maximal effect; tags give direction and shape of the fitted curve.

Structure (SMILES)	Potency	activity change, negative = inhibition
O=S(=O)(Nc1ccc2c(c1)OCCO2)c1cccc2cccnc12	inconclusive [inhibitor, partial curve, poor fit]	–
CC1=C(C(=O)OCC2CCCCC2)C(c2ccc(F)cc2)NC(=O)N1 (centres undefined)	–	inactive: 29.1%
COc1cc(NC(=O)CSc2ncnc3c2cnn3Cc2ccccc2)cc(OC)c1	active: 11.7 µM	–
CC(C)/C=C/CN1CCCC(N2CCN(c3cccc(Cl)c3)CC2)C1 (centres undefined)	inconclusive [inhibitor, partial curve, poor fit]	–
CC1=C(C(=O)OCC(C)C)C(c2ccsc2)C2=C(CCCC2=O)N1 (centres undefined)	active: 13.1 µM	–
O=C(N/N=C/c1cccnc1)c1ccc(NC(=O)c2ccccc2Cl)cc1	inconclusive [inhibitor, single point]	–
c1cncc(CNc2nc(-c3cccnc3)nc3ccccc23)c1	inconclusive [inhibitor, partial curve]	–
CCOc1ccccc1N=c1oc2cc(O)ccc2cc1C(=O)NCC1CCCO1 (centres undefined)	inconclusive [inhibitor, single point]	–
CS(=O)(=O)N(CC(=O)N1CCc2ccccc2C1)c1ccc(Cl)cc1F	–	inactive: 0% [at 0.00184 µM]
O=C1CC(c2ccc(F)cc2)CC2=C1C(c1ccc([N+](=O)[O-])o1)Nc1ccccc1N2 (centres undefined)	inconclusive [inhibitor, single point]	–
COc1cc(/C=C/C(=O)c2ccc(O)cc2)ccc1OCC#N	active: 13.1 µM	–
O=C(NCCOc1ccc(F)cc1)C1CCC(=O)N(CC2CCCCC2)C1 (centres undefined)	inconclusive [inhibitor, single point]	–
Cc1nn(C)c(C)c1S(=O)(=O)N(CC(=O)Nc1nccs1)c1ccc(C(C)C)cc1	–	inactive: -20.4%
Cc1ccc(C)n1-n1cnc2scc(-c3cccs3)c2c1=O	–	inactive: -19.6%
CC(C)(C)[C@@H]1C=C(C(=O)NC2CC2)O[C@H](OCc2ccc(CO)cc2)C1	inconclusive [inhibitor, single point]	–
COc1ccc(OCC(=O)Nc2ccc(Cl)cc2C(=O)c2ccccc2)cc1	inconclusive [inhibitor, partial curve]	–
COC(OC)c1ccnc(-c2ccc(OC(=O)c3ccc(F)cc3)cc2)n1	inconclusive [inhibitor, full curve, poor fit]	–
COc1ccccc1NS(=O)(=O)c1cc(NC(=O)Nc2cccc(C)c2)ccc1N1CCCCC1	active: 3.7 µM	–
O=C(CSCc1ccccc1)N=Nc1c(O)[nH]c2ccccc12	–	inactive: 19.1%
COc1ccc(/C=N\NC(=O)CNC(=O)C(c2ccccc2)c2ccccc2)cc1[N+](=O)[O-]	–	inactive: 7.6%
CCCSc1nc(SCC(=O)NCc2ccccc2)c2c3c(sc2n1)COC(C)(CC)C3 (centres undefined)	inconclusive [inhibitor, full curve]	–
O=C(NCCCn1ccnc1)c1ccc2c(c1)OCCO2	–	inactive: 14%
O=C(/C=C/c1ccc(F)cc1)NCc1cccs1	–	inactive: 54.7%

Structure (SMILES)	Potency	activity change, negative = inhibition
CC[n+]1c(/C=C2\C=C(C)CC(C)(C)C2)sc2ccccc21	active: 0.329 µM	–
O=C(c1ccccc1)c1cnc(-c2ccccc2)s1	–	inactive: -9.59%
COCCCNC(=S)NCCNc1nc2cc(C)cc(C)c2cc1C#N	inconclusive [inhibitor, single point]	–
CC1CCCC(C)N1C(=O)COc1ccc(C(=O)N/N=C/c2ccc(C(=O)O)cc2)cc1 (centres undefined)	–	inactive: -10.3%
Cn1c(SCC(=O)Nc2cccc(S(=O)(=O)NC3=NCCCCC3)c2)nnc1-c1ccccc1	inconclusive [inhibitor, partial curve]	–
CCc1nc2c(sc3nc4c(cc32)COC(C)(C)C4)c(=O)n1Cc1ccco1	inconclusive [inhibitor, single point]	–
CC1=Nc2cccc3cccc(c23)N1	inconclusive [inhibitor, partial curve]	–
Cc1cc(CC(C)C)n(-c2nc3ccccc3c(=O)n2OCc2ccccc2)n1	inconclusive [inhibitor, single point]	–
CNC(=O)/C(C#N)=C/c1c(N2CCN(c3ccc(OC)cc3)CC2)nc2c(C)cccn2c1=O	inconclusive [inhibitor, single point]	–
COc1cccc(C2C(C(=O)c3sc(C)nc3C)=C(O)C(=O)N2CCN2CCOCC2)c1 (centres undefined)	inconclusive [inhibitor, partial curve, poor fit]	–
CC(C)Cn1c(SCC(=O)Nc2ccc3[nH]c(=O)[nH]c3c2)nc2ccccc2c1=O	inconclusive [inhibitor, single point]	–
Cc1ccc(C(=O)c2c[nH]c(C(=O)NCc3cccnc3)c2)cc1	inconclusive [inhibitor, single point]	–
CCCCOc1ccc(/C=C2/Sc3ccccc3C2=O)cc1	inconclusive [inhibitor, partial curve, poor fit]	–
Cn1nnnc1SCCNCc1ccccc1OCc1ccc(Cl)cc1	inconclusive [inhibitor, single point]	–
CC(=O)N/N=C(/C)c1ccc(NC(=O)c2csc(C)c2C)cc1	–	inactive: 230%
Cc1ccc(C(=O)N/C(=C\c2ccc([N+](=O)[O-])cc2)C(=O)NCCc2ccccc2)cc1	inconclusive [inhibitor, single point]	–
CCN(CC)CCCNC(=O)c1cn(CC)c2cc(N3CCN(C(=O)c4ccco4)CC3)c(F)cc2c1=O	active: 7.38 µM	–
Cc1ccc2nc(N3CCC(C(=O)N4CCC5(CC4)OCCO5)CC3)sc2c1	–	inactive: 35.9%
COc1cc(C(=O)OCC(=O)NC2CC2)ccc1OCCC(C)C	inconclusive [inhibitor, single point]	–
COc1ccc(-c2c(-c3ccc(OCC(=O)NN)cc3O)n[nH]c2C)cc1	inconclusive [inhibitor, full curve]	–
CC(C)=CC1C(C(=O)OCc2cccc(Oc3ccccc3)c2)C1(C)C (centres undefined)	inconclusive [inhibitor, single point]	–
COc1ccc2c(ccc[n+]2CC(=O)c2ccc(C)cc2)c1	inconclusive [inhibitor, full curve, poor fit]	–
COc1ccc(N(CC(=O)N/N=C(\C)c2ccccc2)S(=O)(=O)c2ccccc2)cc1	–	inactive: 15.4%

Structure (SMILES)	Potency	activity change, negative = inhibition
CCC(C)Sc1cccc(-c2nc3ccc(Cl)cn3c2NCc2ccccc2)c1 (centres undefined)	active: 9.28 µM	–
CCOc1ccccc1C1c2[nH]c3ccccc3c2C[C@H]2C(=O)N(C3CC3)CC(=O)N12 (some centres undefined)	inconclusive [inhibitor, partial curve, poor fit]	–
COC(=O)Cc1ccc(OCc2ccc(Cl)nc2)cc1	–	inactive: 112%
O=C(COc1cc(Cl)ccc1Cl)N1CCNC1=O	inconclusive [inhibitor, partial curve, poor fit]	–
CCOc1ccc2[nH]c3c(N4CCN(c5ccccn5)CC4)ncnc3c2c1	inconclusive [inhibitor, partial curve]	–
CCCCCC(=O)N1CCN(S(=O)(=O)c2ccc3c(c2)OCCO3)CC1	–	inactive: -2.87%
Cc1ccccc1-n1ncc2c(SCC(=O)NC3CCCC3)ncnc21	inconclusive [inhibitor, partial curve, poor fit]	–
O=C(c1cc2c(s1)CCCC2)N1CCN(S(=O)(=O)c2ccccc2)CC1	inconclusive [inhibitor, full curve, poor fit]	–
O=c1/c(=C\c2cccc(O)c2)sc2nc(-c3ccccc3)c(-c3ccccc3)n12	–	inactive: -4.38%
Cc1cn(-c2ccccc2)c(C)c1/C=N\Nc1nc(N2CCOCC2)nc(N2CCOCC2)n1	active: 8.28 µM	–
CCCC(C(=O)Nc1ccc(S(=O)(=O)N2CCCC2)cc1)c1ccccc1 (centres undefined)	active: 10.4 µM	–
Cc1ccc2nc(SCC(=O)NCc3ccccc3)nc(=O)n2c1	–	inactive: 21%
COc1ccccc1NC(=O)CC1S/C(=N/N=C(\C)C2CCCCC2)NC1=O (centres undefined)	inconclusive [inhibitor, single point]	–
COc1ccc(NC2CCCN(C(=O)c3ccc4[nH]c(C)c(C)c4c3)C2)cc1OC (centres undefined)	inconclusive [inhibitor, partial curve]	–
OCC1(Cc2ccccc2)CCN(CCCC2CCCC2)CC1	inconclusive [inhibitor, single point]	–
COc1ccc(OC)c(Nc2cc(C)nc3ccccc23)c1	inconclusive [inhibitor, single point]	–
CSc1nc2c(c(=O)[nH]1)C(c1ccncc1)C(C(=O)OC(C)C)=C(C)N2 (centres undefined)	inconclusive [inhibitor, single point]	–
CCOC(=O)C1=C(C)N=c2s/c(=C\c3ccc(OCC(=O)O)cc3)c(=O)n2C1c1ccccc1 (centres undefined)	active: 7.38 µM	–
CCN(Cc1ccncc1)Cc1nc(Cc2ccccc2Cl)no1	active: 10.4 µM	–
CCCCNC(=S)N(CCN(C)C)Cc1cc2cc3c(cc2[nH]c1=O)OCCO3	inconclusive [inhibitor, single point]	–
CCOC(=O)N1CCN(C(=O)C(NC(=O)c2ccc(CC)cc2)C(C)C)CC1 (centres undefined)	inconclusive [inhibitor, single point]	–
COc1ccc(S(=O)(=O)Nc2ccc(-c3ccc4nncn4n3)cc2)c(OC)c1	inconclusive [inhibitor, single point]	–
Cc1ccc(S(=O)(=O)NCC2CCC(C(=O)N3CCOCC3)CC2)cc1 (centres undefined)	inconclusive [inhibitor, full curve, poor fit]	–
